Data from the supplement of paper PMC9588766.
Counter-ions that a name gives are not always drawn. ± gives the standard deviation of the averaged measurements. In all, about 2,000 compounds were measured (“cell viability relative to DMSO control (compound alone)”: median about 0.98, lowest 2% from about 0.23 on). The list shows a part of the results.

The compounds below were run on PDC-DUC18828 (assay: cell viability relative to DMSO control (compound alone) (fraction); PDC-DUC18828 is a patient-derived cholangiocarcinoma cell line; higher = less growth inhibition). Conditions: 1 µM; 72 h.
Procedure: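 Selleck Bioactive library screen in the patient-derived FGFR2-G3BP2 fusion-positive ICC cell line PDC-DUC18828 (500 cells/well). Each compound was tested at 1 uM alone, in triplicate, for 72 h. Viability was read by CellTiter-Glo and normalised to plate DMSO controls.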
In the case of `Cc1cc(C)c(S(=O)(=O)n2cc(C)cc2C)c(C)c1`, the cell viability is reported as 0.965 ± 0.088.
`Cc1[nH]c2ccccc2c1CCNCc1ccc(/C=C/C(=O)NO)cc1` [Panobinostat (LBH589)] showed a cell viability of 0.113 ± 0.0019.
Compound `c1cncc(CN2CCC(n3ncc4c(N5CCOCC5)nc(-c5ccc6[nH]ccc6c5)nc43)CC2)c1` has a cell viability of 0.654 ± 0.039.
Work on `COC1CCN(C(=O)c2cc(Cc3n[nH]c(=O)c4ccccc34)ccc2F)CC1` yielded a cell viability of 0.965 ± 0.031.
Compound `CCCCN1CCCCC1C(=O)Nc1c(C)cccc1C` (configuration not stated) [Bupivacaine HCl] has a cell viability of 0.924 ± 0.054.
With `CCOC(=O)c1[nH]c2cc(Cl)ccc2c1C(C(=O)NC(C)(C)C)N(C=O)Cc1ccc(Cl)cc1` (configuration not stated) the cell viability was 1.03 ± 0.054.
Compound `Cc1ccc2c(=O)c3cccc(CC(=O)O)c3oc2c1C` [DMXAA (Vadimezan)] has a cell viability of 1.02 ± 0.051.
For `C=C1/C(=C\C=C2/CCC[C@]3(C)[C@@H]([C@H](C)/C=C/[C@H](C)C(C)C)CC[C@@H]23)C[C@@H](O)C[C@@H]1O` [Doxercalciferol], the cell viability was 0.996 ± 0.075.
`C[C@H]1O[C@@H](Oc2c(-c3cc(O)c(O)c(O)c3)oc3cc(O)cc(O)c3c2=O)[C@@H](O)[C@@H](O)[C@@H]1O` [Myricitrin] was tested, and the cell viability was 1 ± 0.015.
`Cc1nc(-c2ccc(OCC(C)C)c(C#N)c2)sc1C(=O)O` [Febuxostat] was tested, and the cell viability was 1.12 ± 0.062.
`Oc1cc2c(cc1O)[C@@H]1c3ccc(O)c(O)c3OC[C@]1(O)C2` [Hematoxylin] was tested, and the cell viability was 0.985 ± 0.044.
`CC(C(=O)O)c1ccc2c(c1)CC(=O)c1ccccc1S2` (configuration not stated) [Zaltoprofen] was tested, and the cell viability was 0.876 ± 0.035.
Compound `COc1ccc(CC2c3cc(OC)c(OC)cc3CC[N+]2(C)CCC(=O)OCCCCCOC(=O)CC[N+]2(C)CCc3cc(OC)c(OC)cc3C2Cc2ccc(OC)c(OC)c2)cc1OC` (configuration not stated) [Atracurium Besylate] has a cell viability of 1.02 ± 0.035.
`CC(=O)[C@H]1CC[C@H]2[C@@H]3CC=C4C[C@@H](O)CC[C@]4(C)[C@H]3CC[C@]12C` [Pregnenolone] gave a cell viability of 0.965 ± 0.03.
`CCOC(=O)c1c(CSc2ccccc2)n(C)c2cc(Br)c(O)c(CN(C)C)c12` [Arbidol HCl] showed a cell viability of 0.995 ± 0.01.
With `CCN1CCN(Cc2ccc(-c3cc4c(N[C@H](C)c5ccccc5)ncnc4[nH]3)cc2)CC1` the cell viability was 0.976 ± 0.063.
In the case of `Cc1nc(Nc2ncc(C(=O)Nc3c(C)cccc3Cl)s2)cc(N2CCN(CCO)CC2)n1` [Dasatinib], the cell viability is reported as 0.43 ± 0.036.
`Cc1cc(Nc2nc(N[C@@H](C)c3ccc(F)cc3)c(C#N)cc2F)n[nH]1` showed a cell viability of 0.37 ± 0.04.
`CCC(=O)Nc1cccc(Oc2nc(Nc3ccc(N4CCN(C)CC4)cc3OC)ncc2Cl)c1` showed a cell viability of 1.05 ± 0.048.
With `N#Cc1c(NC(=O)c2cccc3ccccc23)sc2c1CCCC2` [JNK Inhibitor IX] the cell viability was 0.364 ± 0.043.
`C=CC(=O)Nc1cccc(Nc2nc(Nc3ccc(OCCOC)cc3)ncc2F)c1` was tested, and the cell viability was 0.708 ± 0.028.
For `COC(=O)Nc1nc2cc([S+]([O-])c3ccccc3)ccc2[nH]1` (configuration not stated) [Oxfendazole], the cell viability was 0.985 ± 0.055.
`CCc1c(Cl)c(O)c(Cl)c(O)c1C(=O)O[C@H]1[C@H](O)[C@H](OC)[C@H](OC/C2=C\C=C\C[C@H](O)/C(C)=C/[C@H](CC)[C@@H](O[C@@H]3OC(C)(C)[C@@H](OC(=O)C(C)C)[C@H](O)[C@@H]3O)/C(C)=C/C(C)=C/C[C@@H]([C@@H](C)O)OC2=O)O[C@@H]1C` [Fidaxomicin] gave a cell viability of 0.908 ± 0.069.
For `Nc1ccn([C@@H]2CS[C@H](CO)O2)c(=O)n1` [Lamivudine], the cell viability was 0.948 ± 0.026.
For `O=C1NCCCc2c1oc1ccc(O)cc21`, the cell viability was 0.983 ± 0.031.
Work on `COc1ccccc1OCC(O)COC(N)=O` (configuration not stated) [Methocarbamol] yielded a cell viability of 1.05 ± 0.026.
Compound `O=C(Nc1ccccc1)Nc1ccc(-c2ccc(C(=O)[C@@H]3CCC[C@H]3C(=O)O)cc2)cc1` has a cell viability of 1.03 ± 0.036.
Compound `CN(C)C/C=C/C(=O)Nc1cc2c(Nc3ccc(F)c(Cl)c3)ncnc2cc1O[C@H]1CCOC1` [Afatinib (BIBW2992)] has a cell viability of 0.868 ± 0.049.
`CN(C)C/C=C/C(=O)Nc1cc2c(Nc3ccc(F)c(Cl)c3)ncnc2cc1O[C@H]1CCOC1` [Afatinib (BIBW2992) Dimaleate] gave a cell viability of 0.859 ± 0.047.
With `O=C1NC(=O)C(c2ccccc2)(c2ccccc2)N1` [Phenytoin] the cell viability was 0.923 ± 0.035.
`CC(C)(O)c1ccccc1CC[C@@H](SCC1(CC(=O)O)CC1)c1cccc(/C=C/c2ccc3ccc(Cl)cc3n2)c1` [Montelukast Sodium] gave a cell viability of 1.02 ± 0.036.
`COc1ccc(S(=O)(=O)N(CCO)c2ccccc2CN(C)C/C=C/c2ccc(Cl)cc2)cc1` [KN-93 Phosphate] gave a cell viability of 1.1 ± 0.046.
For `O=C(Nc1ccccc1Br)N[C@@H]1CCN(c2ccc(C(F)(F)F)cn2)C1`, the cell viability was 1.12 ± 0.029.
`O=C(NOCC(O)CO)c1cc(Br)c(F)c(F)c1Nc1ccc(I)cc1F` (configuration not stated) showed a cell viability of 0.962 ± 0.017.
For `CN(C)CC(c1ccc(O)cc1)C1(O)CCCCC1` (configuration not stated) [Desvenlafaxine], the cell viability was 0.998 ± 0.074.
In the case of `CN(C)CC(c1ccc(O)cc1)C1(O)CCCCC1` (configuration not stated) [Desvenlafaxine Succinate], the cell viability is reported as 0.912 ± 0.028.
`C#CCC(Cc1cnc2nc(N)nc(N)c2n1)c1ccc(C(=O)N[C@@H](CCC(=O)O)C(=O)O)cc1` (some centres not stated) [Pralatrexate] showed a cell viability of 0.949 ± 0.034.
`O=C(C[S+]([O-])Cc1ccco1)NC/C=C\COc1cc(CN2CCCCC2)ccn1` (configuration not stated) [Lafutidine] showed a cell viability of 1.01 ± 0.028.
`CCN(CC)CCCC(C)Nc1nc(C)cc(Nc2ccc3nc(C)cc(N)c3c2)n1` (configuration not stated) gave a cell viability of 1 ± 0.026.
Work on `O=C(c1ccccc1)c1ccc2n1CCC2C(=O)O` (configuration not stated) [Ketorolac] yielded a cell viability of 1.02 ± 0.021.
Compound `COc1c(N2CCNC(C)C2)c(F)cc2c(=O)c(C(=O)O)cn(C3CC3)c12` (configuration not stated) [Gatifloxacin] has a cell viability of 0.9603 ± 0.0022.
In the case of `CN(C)Cc1ccc(S(=O)(=O)n2ccc(/C=C/C(=O)NO)c2)cc1` [Resminostat], the cell viability is reported as 1.05 ± 0.058.
`Nc1ncnc2n[nH]c(Nc3ccc(F)cc3)c12` showed a cell viability of 0.956 ± 0.014.
In the case of `CC[C@H](C)C[C@H](C)CCCCCCCCC(=O)N[C@H]1C[C@@H](O)[C@@H](NCCN)NC(=O)[C@@H]2[C@@H](O)CCN2C(=O)[C@H]([C@H](O)CCN)NC(=O)[C@H]([C@H](O)[C@@H](O)c2ccc(O)cc2)NC(=O)[C@@H]2C[C@@H](O)CN2C(=O)[C@H]([C@@H](C)O)NC1=O` [Caspofungin Acetate], the cell viability is reported as 0.883 ± 0.03.
`CCn1cc(NC(=S)Nc2cc(Cl)ccc2OC)c(C(N)=O)n1` gave a cell viability of 1.03 ± 0.029.
`c1ccc(CN(CC2=NCCN2)c2ccccc2)cc1` [Antazoline HCl] was tested, and the cell viability was 1.03 ± 0.068.
`CN(C)CC/C=C1/c2ccccc2COc2ccc(CC(=O)O)cc21` [Olopatadine HCl] showed a cell viability of 1.02 ± 0.058.
`CCCCCCCCCCCC[N+](C)(C)CCOc1ccccc1` [Domiphen Bromide] showed a cell viability of 1.01 ± 0.039.
For `Cc1ccc(-n2nc(C(C)(C)C)cc2NC(=O)Nc2ccc(OCCN3CCOCC3)c3ccccc23)cc1` [BIRB 796 (Doramapimod)], the cell viability was 1.07 ± 0.031.
For `Cc1cc(OCc2nnc(SC3CCCC3)n2-c2cccnc2)ccc1-c1ccc(S(C)(=O)=O)cc1`, the cell viability was 0.864 ± 0.023.
`CNC(=O)c1ccc(C)c(-n2c(C)cc(OCc3ccc(F)cc3F)c(Br)c2=O)c1` gave a cell viability of 0.902 ± 0.021.
`CC(C)C[C@H](NC(=O)CNC(=O)c1cc(Cl)ccc1Cl)B1OC(=O)C(CC(=O)O)(CC(=O)O)O1` showed a cell viability of 0.0219 ± 0.0016.
`CCN(CC)CCCCNc1ncc2cc(-c3cc(OC)cc(OC)c3)c(NC(=O)NC(C)(C)C)nc2n1` gave a cell viability of 0.759 ± 0.044.
`CC[C@@H](CO)NCCN[C@@H](CC)CO` [Ethambutol HCl] gave a cell viability of 0.983 ± 0.018.
With `CCCOc1ccc(C(=O)OCCN(CC)CC)cc1N` [Proparacaine HCl] the cell viability was 0.936 ± 0.018.
`CC(=O)OCC(=O)[C@H]1CC[C@H]2[C@@H]3CCC4=CC(=O)CC[C@]4(C)[C@H]3CC[C@]12C` [Deoxycorticosterone acetate] showed a cell viability of 0.968 ± 0.047.
`Oc1cccc(-c2nc(N3CCOCC3)c3oc4ncccc4c3n2)c1` was tested, and the cell viability was 0.503 ± 0.11.
With `Cn1cc(-c2ccc3c(c2)CCN3C(=O)Cc2cccc(C(F)(F)F)c2)c2c(N)ncnc21` the cell viability was 0.937 ± 0.043.
`C#C[C@]1(O)CC[C@H]2[C@@H]3CCC4=CC(=O)CC[C@@H]4[C@H]3CC[C@@]21CC` [Levonorgestrel] showed a cell viability of 1.02 ± 0.021.
`N#C/C(=C\c1ccc(O)c(O)c1)C(=O)NCc1ccccc1` [AG-490 (Tyrphostin B42)] gave a cell viability of 1.03 ± 0.013.
`O=C(/C=C/c1ccc(O)c(O)c1)O[C@@H]1C[C@](O)(C(=O)O)C[C@@H](O)[C@H]1O` [Chlorogenic Acid] showed a cell viability of 1.04 ± 0.039.
Compound `C[C@@H]1COC(Nc2ccc3ncnc(Nc4ccc(OCc5nccs5)c(Cl)c4)c3c2)=N1` [Varlitinib] has a cell viability of 0.999 ± 0.046.
`CCOC(=O)C1=C(N)Oc2ccc(Br)cc2C1C(C#N)C(=O)OCC` (configuration not stated) gave a cell viability of 1.1 ± 0.11.
`O=[N+]([O-])c1ccc(Nc2nc(N3CCOCC3)nc(N3CCOCC3)n2)cc1` showed a cell viability of 1 ± 0.011.
In the case of `CCCCOc1cc(C(=O)OCCN(CC)CC)ccc1N` [Oxybuprocaine HCl], the cell viability is reported as 0.985 ± 0.02.
With `O=C1O[C@H]([C@@H](O)CO)C([O-])=C1O.[Na+]` [Sodium ascorbate] the cell viability was 0.984 ± 0.025.
`N#C/C(=C1/SC[C@@H](c2ccc(Cl)cc2Cl)S1)n1ccnc1` [Luliconazole] gave a cell viability of 1.02 ± 0.027.
Work on `CC(C)Oc1ccc2c(=O)c(-c3ccccc3)coc2c1` [Ipriflavone (Osteofix)] yielded a cell viability of 0.921 ± 0.017.
`CCCCOc1ccc(C(=O)Nc2ccc(F)cc2F)cc1` showed a cell viability of 1.04 ± 0.074.
With `Nc1nc(OCc2cc(Br)cs2)c2[nH]cnc2n1` [Lomeguatrib] the cell viability was 1.02 ± 0.076.
For `Clc1ccc2nsnc2c1NC1=NCCN1` [Tizanidine HCl], the cell viability was 1.03 ± 0.014.
For `Cc1cc(Nc2cc(N3CCN(C)CC3)nc(Sc3ccc(NC(=O)C4CC4)cc3)n2)n[nH]1` [VX-680 (Tozasertib, MK-0457)], the cell viability was 0.877 ± 0.035.
`Cc1cc(C(C)Nc2ccccc2)c2nc(N3CCOCC3)cc(=O)n2c1` (configuration not stated) gave a cell viability of 0.878 ± 0.046.
Compound `NC1(Cc2ccc(Cl)cc2)CCN(c2ncnc3[nH]ccc23)CC1` has a cell viability of 1.06 ± 0.053.
In the case of `N[C@H]1CC[C@H](N[C@@H]2C[C@H]2c2ccccc2)CC1`, the cell viability is reported as 0.952 ± 0.019.
Work on `Clc1ccc(C2(c3ccc(-c4cn[nH]c4)cc3)CCNCC2)cc1` yielded a cell viability of 0.924 ± 0.038.
Compound `CNC(=O)[C@@H](NC(=O)[C@H](CC(C)C)[C@H](O)C(=O)NO)C(C)(C)C` [Marimastat(BB-2516)] has a cell viability of 1.05 ± 0.031.
